#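 Exposure lasted 48 hours, with cells grown in 96-well plates and compounds tested at five concentrations. GI50 marks 50% less growth.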 Activity calls are given as the source filed them. No stated cut-off is given here; in the data, active = GI50 up to about 1.1 µM and inactive = higher.
# Columns and labels:
# Test in all cases: growth of human tumour cells (NCI), 48 h
# SK-MEL-2 = tested on: SK-MEL-2
# RPMI-8226 = tested on: RPMI-8226
# OVCAR-5 = tested on: OVCAR-5
# A498 = tested on: A498
# M14 = tested on: M14
# MOLT-4 = tested on: MOLT-4
# ACHN = tested on: ACHN
# OVCAR-3 = tested on: OVCAR-3
# HL-60 = tested on: HL-60
# UO-31 = tested on: UO-31
# MDA-MB-231 = tested on: MDA-MB-231
# CAKI-1 = tested on: CAKI-1
# HCT-116 = tested on: HCT-116
# HOP-62 = tested on: HOP-62
# SF-539 = tested on: SF-539
# UACC-62 = tested on: UACC-62
# KM12 = tested on: KM12
# SK-MEL-28 = tested on: SK-MEL-28
# SR = tested on: SR
# NCI/ADR-RES = tested on: NCI/ADR-RES
# DU-145 = tested on: DU-145
# SF-268 = tested on: SF-268
# SW-620 = tested on: SW-620
# 786-0 = tested on: 786-0
# LOX IMVI = tested on: LOX IMVI
# NCI-H23 = tested on: NCI-H23
# A549 = tested on: A549
# HCT-15 = tested on: HCT-15
# Hs-578T = tested on: Hs-578T
# RXF 393 = tested on: RXF 393
# SK-MEL-5 = tested on: SK-MEL-5
# TK-10 = tested on: TK-10
# PC-3 = tested on: PC-3
# MCF7 = tested on: MCF7
# NCI-H460 = tested on: NCI-H460
# SF-295 = tested on: SF-295
# CCRF-CEM = tested on: CCRF-CEM
# SK-OV-3 = tested on: SK-OV-3
# SNB-75 = tested on: SNB-75
# MDA-MB-435 = tested on: MDA-MB-435
# HCC 2998 = tested on: HCC 2998
# OVCAR-4 = tested on: OVCAR-4
# T47D = tested on: T47D
# HOP-92 = tested on: HOP-92
# U-251 = tested on: U-251
# COLO 205 = tested on: COLO 205
# K562 = tested on: K562
smiles,measurement,setting,value
O=C1Cc2c([nH]c3ccc(C(F)(F)F)cc23)-c2ccccc2N1,GI50,SK-MEL-2,inactive: > 100 µM
same,GI50,RPMI-8226,inactive: > 100 µM
same,GI50,OVCAR-5,inactive: > 100 µM
same,GI50,A498,inactive: > 100 µM
same,GI50,M14,inactive: > 100 µM
same,GI50,MOLT-4,inactive: > 100 µM
same,GI50,ACHN,inactive: > 100 µM
same,GI50,OVCAR-3,inactive: 6.32 µM
same,GI50,HL-60,inactive: > 100 µM
same,GI50,UO-31,inactive: > 100 µM
same,GI50,MDA-MB-231,inactive: > 100 µM
same,GI50,CAKI-1,inactive: > 100 µM
same,GI50,HCT-116,inactive: 3.67 µM
same,GI50,HOP-62,inactive: > 100 µM
same,GI50,SF-539,inactive: > 100 µM
same,GI50,UACC-62,inactive: > 100 µM
same,GI50,KM12,inactive: 4.69 µM
same,GI50,SK-MEL-28,inactive: > 100 µM
same,GI50,SR,inactive: 31.3 µM
same,GI50,NCI/ADR-RES,inactive: > 100 µM
same,GI50,DU-145,inactive: > 100 µM
same,GI50,SF-268,inactive: > 100 µM
same,GI50,SW-620,inactive: > 100 µM
same,GI50,786-0,inactive: > 100 µM
same,GI50,LOX IMVI,inactive: > 100 µM
same,GI50,NCI-H23,inactive: > 100 µM
same,GI50,A549,inactive: 20.6 µM
same,GI50,HCT-15,> 100 µM
same,GI50,Hs-578T,inactive: > 100 µM
same,GI50,RXF 393,inactive: 83 µM
same,GI50,SK-MEL-5,inactive: > 100 µM
same,GI50,TK-10,inactive: > 100 µM
same,GI50,PC-3,inactive: > 100 µM
same,GI50,MCF7,inactive: > 100 µM
same,GI50,NCI-H460,inactive: > 100 µM
same,GI50,SF-295,inactive: 6.12 µM
same,GI50,CCRF-CEM,inactive: > 100 µM
same,GI50,SK-OV-3,inactive: 48 µM
same,GI50,SNB-75,inactive: > 100 µM
same,GI50,MDA-MB-435,inactive: > 100 µM
same,GI50,HCC 2998,inactive: > 100 µM
same,GI50,OVCAR-4,inactive: > 100 µM
same,GI50,T47D,inactive: > 100 µM
same,GI50,HOP-92,inactive: > 100 µM
same,GI50,U-251,inactive: > 100 µM
same,GI50,COLO 205,inactive: > 100 µM
same,GI50,K562,inactive: > 100 µM

# Source: ChEMBL document CHEMBL1201862, “PubChem BioAssay data set” (2004)
